# The other results are listed elsewhere or left out. Values were computed here from the reads of four pooled replicates and scatter widely.
# Target: T1, Pho4 (S. cerevisiae) (UniProt P07270)
# T1 sequence: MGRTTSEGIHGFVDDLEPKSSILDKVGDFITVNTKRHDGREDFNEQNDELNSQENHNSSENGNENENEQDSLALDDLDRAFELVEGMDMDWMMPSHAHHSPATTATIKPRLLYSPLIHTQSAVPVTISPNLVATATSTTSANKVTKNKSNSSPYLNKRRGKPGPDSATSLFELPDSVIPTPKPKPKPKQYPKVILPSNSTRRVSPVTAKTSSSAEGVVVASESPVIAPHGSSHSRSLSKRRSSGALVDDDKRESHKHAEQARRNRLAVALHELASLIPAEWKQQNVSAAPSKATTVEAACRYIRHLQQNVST
# Experiment: relative binding free energy (BET-seq); higher = weaker binding
# Settings: reference: library average
row,Sequence,relative binding free energy
1,CGGTTCACGTGCTAGG,0.27 kcal/mol
2,TAGGCCACGTGAGAGT,0.15 kcal/mol
3,GGAAACACGTGGTGGT,-0.07 kcal/mol
4,CTTGTCACGTGTGCGG,0.08 kcal/mol
5,CAGTGCACGTGATTTT,0.23 kcal/mol
6,GATGTCACGTGTTTAC,0.18 kcal/mol
7,ATGTGCACGTGGAAAG,0.07 kcal/mol
8,GGACACACGTGGTGTT,0.04 kcal/mol
9,GTTGACACGTGTTCTG,-0.06 kcal/mol
10,GAAATCACGTGTCGTT,0.42 kcal/mol
11,GTAAGCACGTGGGATA,-0.12 kcal/mol
12,AAGAGCACGTGGTTTG,-0.07 kcal/mol
13,AATGTCACGTGTTACG,0.14 kcal/mol
14,AGTGACACGTGGAGTT,0.08 kcal/mol
15,GTTTTCACGTGGATTG,0.37 kcal/mol
16,TTCTGCACGTGTGTAT,0.03 kcal/mol
17,ATAGACACGTGTAAGG,0.07 kcal/mol
18,TGACGCACGTGTATGG,-0.16 kcal/mol
19,TTTCACACGTGTAAGG,0.15 kcal/mol
20,GTGTACACGTGGGGCA,-0.16 kcal/mol
21,CGTATCACGTGCTGTG,0.1 kcal/mol
22,GATTACACGTGTTTGT,0.08 kcal/mol
23,TGTGACACGTGTTTAA,0.12 kcal/mol
24,GGATGCACGTGGGCGT,-0.19 kcal/mol
25,GGGACCACGTGTGAGG,0.21 kcal/mol

row,Sequence,relative binding free energy
1,CTGTTCACGTGGCATG,0.12 kcal/mol
2,ATGGGCACGTGGGCAC,-0.22 kcal/mol
3,TTTTTCACGTGGCCAG,0.34 kcal/mol
4,TTAGGCACGTGCTGGC,-0.15 kcal/mol
5,TCTGGCACGTGTGGAA,-0.03 kcal/mol
6,TTGGCCACGTGGTGGA,-0.06 kcal/mol
7,TCACGCACGTGTGTGT,-0.12 kcal/mol
8,TAGTTCACGTGAGGCG,0.4 kcal/mol
9,TATGTCACGTGTACAT,-0.03 kcal/mol
10,ACTTCCACGTGTGGTT,0.17 kcal/mol
11,AATGGCACGTGGTAGG,-0.24 kcal/mol
12,AGGTTCACGTGTCGGC,0.34 kcal/mol
13,AGCAACACGTGTTTGT,0.02 kcal/mol
14,GGGGGCACGTGGAATG,0.02 kcal/mol
15,TGATGCACGTGGGAGT,0.03 kcal/mol
16,TCGGGCACGTGAGAGG,0.24 kcal/mol
17,GTCTTCACGTGGGGGA,0.12 kcal/mol
18,GTACTCACGTGCGGGT,0.11 kcal/mol
19,ACGTTCACGTGAGAGG,0.31 kcal/mol
20,TAGAGCACGTGGGTGT,-0.2 kcal/mol
21,GGATACACGTGTCGGG,0.26 kcal/mol
22,GGGGACACGTGGGCAG,-0.1 kcal/mol
23,CTGGGCACGTGAGTGT,0.09 kcal/mol
24,GTTAACACGTGGCATT,0 kcal/mol
25,TGTATCACGTGGCGGC,0.08 kcal/mol

row,Sequence,relative binding free energy
1,TTCAACACGTGGGGTC,-0.06 kcal/mol
2,CAGGTCACGTGTTTAT,0.2 kcal/mol
3,TAAGGCACGTGGCTTT,-0.2 kcal/mol
4,GTAGTCACGTGAGGTC,0.25 kcal/mol
5,ATGGACACGTGTAGGT,0.1 kcal/mol
6,TGGCACACGTGTTCTG,0.1 kcal/mol
7,ACTTGCACGTGTGATT,0 kcal/mol
8,CAGTGCACGTGTATGT,-0.17 kcal/mol
9,TTGATCACGTGGCATA,0.15 kcal/mol
10,AGGAACACGTGATTTT,0.17 kcal/mol
11,ATGAGCACGTGGGTCT,-0.25 kcal/mol
12,TGGTTCACGTGCATAG,0.15 kcal/mol
13,TGGTGCACGTGGGGAT,-0.1 kcal/mol
14,TTTTACACGTGACATT,0.27 kcal/mol
15,AGTGCCACGTGGGGAG,-0.16 kcal/mol
16,CTTGGCACGTGGGTAT,-0.32 kcal/mol
17,CATGTCACGTGAGTAT,0.32 kcal/mol
18,CTAGGCACGTGTCGTG,-0.09 kcal/mol
19,TTAAGCACGTGCTGTA,-0.24 kcal/mol
20,TTGGTCACGTGCGTTC,0.18 kcal/mol
21,TTGTGCACGTGAGCGG,0.14 kcal/mol
22,GTCTTCACGTGAAGTA,0.5 kcal/mol
23,GTTGACACGTGGTGTG,-0.08 kcal/mol
24,TTAAGCACGTGGGGAA,-0.07 kcal/mol
25,GAATGCACGTGTTATT,0.15 kcal/mol

row,Sequence,relative binding free energy
1,ATGGACACGTGCTGGA,0 kcal/mol
2,TCGGGCACGTGCTGTG,-0.17 kcal/mol
3,AGAGACACGTGTCGGG,0 kcal/mol
4,GTGATCACGTGGGTAT,0.07 kcal/mol
5,GCCGTCACGTGGGGCG,0.02 kcal/mol
6,AATTGCACGTGCGATG,-0.08 kcal/mol
7,TTGTCCACGTGTGGGT,0.12 kcal/mol
8,TGGTCCACGTGGGCGG,-0.07 kcal/mol
9,AGTTACACGTGTGTTC,0 kcal/mol
10,AGTCACACGTGTTGTG,-0.06 kcal/mol
11,TGTTTCACGTGGCGTT,0.23 kcal/mol
12,TATTTCACGTGTTCGT,0.27 kcal/mol
13,GTTTGCACGTGCGGCC,0.15 kcal/mol
14,GGACTCACGTGGGTGT,0.11 kcal/mol
15,AGTTACACGTGTGCGT,-0.06 kcal/mol
16,GTGGTCACGTGTAATA,0.25 kcal/mol
17,TAGATCACGTGTTATC,0.3 kcal/mol
18,TTGAGCACGTGTGCTG,-0.1 kcal/mol
19,AATTTCACGTGGATGC,0.31 kcal/mol
20,GCGGTCACGTGTGTTA,0.13 kcal/mol
21,AATGTCACGTGGGGGC,-0.05 kcal/mol
22,GTTTGCACGTGGCCTG,-0.13 kcal/mol
23,AATGACACGTGGTATA,-0.06 kcal/mol
24,CAAAGCACGTGGGGGT,-0.16 kcal/mol
25,AGTTCCACGTGTGTAG,0.11 kcal/mol

row,Sequence,relative binding free energy
1,TAATGCACGTGTTTCT,-0.04 kcal/mol
2,AGTGGCACGTGTGTTC,0.01 kcal/mol
3,TTGGACACGTGGCAAG,-0.07 kcal/mol
4,TTCTGCACGTGGGGTT,-0.16 kcal/mol
5,GGGCGCACGTGTGTAT,0.01 kcal/mol
6,TAGGACACGTGGTCCG,0.06 kcal/mol
7,GCTGGCACGTGTTTAT,-0.07 kcal/mol
8,TTGTGCACGTGGGGCC,-0.17 kcal/mol
9,CTATGCACGTGCGTTG,-0.07 kcal/mol
10,CGGTTCACGTGGCGTA,0.12 kcal/mol
11,TATGGCACGTGGGCTA,-0.24 kcal/mol
12,GGGTACACGTGTTTCG,0.15 kcal/mol
13,AAGTGCACGTGTGAGT,0 kcal/mol
14,TGGCGCACGTGAGTGC,0.24 kcal/mol
15,GGTGCCACGTGTGAGT,0.04 kcal/mol
16,TGCATCACGTGAAGGT,0.42 kcal/mol
17,GGAGCCACGTGCGTGT,-0.06 kcal/mol
18,ATTATCACGTGCATGG,0.08 kcal/mol
19,GGGGTCACGTGATCTT,0.2 kcal/mol
20,AAGGCCACGTGTCGGA,0.16 kcal/mol
21,GCGGGCACGTGTAGTG,0 kcal/mol
22,GTGATCACGTGAATTT,0.49 kcal/mol
23,GGTGACACGTGGGAGG,-0.02 kcal/mol
24,ATTGGCACGTGAAGTT,0.22 kcal/mol
25,GGCATCACGTGTGCGT,0.21 kcal/mol

row,Sequence,relative binding free energy
1,GTGGTCACGTGAGTTG,0.34 kcal/mol
2,CGGTACACGTGTGATT,0.15 kcal/mol
3,TGTTTCACGTGTATAA,0.22 kcal/mol
4,GGTCTCACGTGGTTTA,0.23 kcal/mol
5,TTGCCCACGTGGGGTG,-0.21 kcal/mol
6,TCTGGCACGTGTGTAT,-0.01 kcal/mol
7,TGCCGCACGTGTGAGG,-0.08 kcal/mol
8,TTTGTCACGTGGGGCT,-0.01 kcal/mol
9,CTGGTCACGTGTTTAT,0 kcal/mol
10,GGGTCCACGTGGGTCG,-0.2 kcal/mol
11,GCGAGCACGTGCGGGG,-0.24 kcal/mol
12,TGGTACACGTGCTAGT,-0.03 kcal/mol
13,TGTTGCACGTGGGGTG,-0.13 kcal/mol
14,GGAAGCACGTGGGTAA,-0.34 kcal/mol
15,TAGGGCACGTGGAACT,-0.07 kcal/mol
16,GAGTGCACGTGGTATT,-0.03 kcal/mol
17,GTTGTCACGTGTGGAT,0.2 kcal/mol
18,GTTGTCACGTGCTTCT,0.14 kcal/mol
19,TGTTTCACGTGCGGGT,0.28 kcal/mol
20,TGTGGCACGTGGAGTA,-0.11 kcal/mol
21,CTATGCACGTGTTGTA,-0.09 kcal/mol
